Assay results from PubChem BioAssay AID1347165 (National Center for Advancing Translational Sciences (NCATS), 2019).
Values joined by “and” are separate entries in the source; they are usually repeats but may differ in a detail not shown here. Equal entries are not always repeated. Among all 220,000 compounds or so, about 5,700 (2.6%) were called active. Inconclusive means that the source gave no clear call. Such entries were picked first, then a sample of the others. Calls follow the shape of the dose curve; as a rule, active = well fitted inhibition curve with a large enough effect; inconclusive = small, poorly fitted or top-dose-only effect; inactive = no such curve, though single readings can be large or run the other way. Potencies beside an inconclusive call are fits to weak or partial responses and may not hold up.

Molecular target: Lysine-specific demethylase 5B (Homo sapiens) (UniProt Q9UGL1)
Sequence of UniProt Q9UGL1 (Q9UGL1 whole entry, looked up): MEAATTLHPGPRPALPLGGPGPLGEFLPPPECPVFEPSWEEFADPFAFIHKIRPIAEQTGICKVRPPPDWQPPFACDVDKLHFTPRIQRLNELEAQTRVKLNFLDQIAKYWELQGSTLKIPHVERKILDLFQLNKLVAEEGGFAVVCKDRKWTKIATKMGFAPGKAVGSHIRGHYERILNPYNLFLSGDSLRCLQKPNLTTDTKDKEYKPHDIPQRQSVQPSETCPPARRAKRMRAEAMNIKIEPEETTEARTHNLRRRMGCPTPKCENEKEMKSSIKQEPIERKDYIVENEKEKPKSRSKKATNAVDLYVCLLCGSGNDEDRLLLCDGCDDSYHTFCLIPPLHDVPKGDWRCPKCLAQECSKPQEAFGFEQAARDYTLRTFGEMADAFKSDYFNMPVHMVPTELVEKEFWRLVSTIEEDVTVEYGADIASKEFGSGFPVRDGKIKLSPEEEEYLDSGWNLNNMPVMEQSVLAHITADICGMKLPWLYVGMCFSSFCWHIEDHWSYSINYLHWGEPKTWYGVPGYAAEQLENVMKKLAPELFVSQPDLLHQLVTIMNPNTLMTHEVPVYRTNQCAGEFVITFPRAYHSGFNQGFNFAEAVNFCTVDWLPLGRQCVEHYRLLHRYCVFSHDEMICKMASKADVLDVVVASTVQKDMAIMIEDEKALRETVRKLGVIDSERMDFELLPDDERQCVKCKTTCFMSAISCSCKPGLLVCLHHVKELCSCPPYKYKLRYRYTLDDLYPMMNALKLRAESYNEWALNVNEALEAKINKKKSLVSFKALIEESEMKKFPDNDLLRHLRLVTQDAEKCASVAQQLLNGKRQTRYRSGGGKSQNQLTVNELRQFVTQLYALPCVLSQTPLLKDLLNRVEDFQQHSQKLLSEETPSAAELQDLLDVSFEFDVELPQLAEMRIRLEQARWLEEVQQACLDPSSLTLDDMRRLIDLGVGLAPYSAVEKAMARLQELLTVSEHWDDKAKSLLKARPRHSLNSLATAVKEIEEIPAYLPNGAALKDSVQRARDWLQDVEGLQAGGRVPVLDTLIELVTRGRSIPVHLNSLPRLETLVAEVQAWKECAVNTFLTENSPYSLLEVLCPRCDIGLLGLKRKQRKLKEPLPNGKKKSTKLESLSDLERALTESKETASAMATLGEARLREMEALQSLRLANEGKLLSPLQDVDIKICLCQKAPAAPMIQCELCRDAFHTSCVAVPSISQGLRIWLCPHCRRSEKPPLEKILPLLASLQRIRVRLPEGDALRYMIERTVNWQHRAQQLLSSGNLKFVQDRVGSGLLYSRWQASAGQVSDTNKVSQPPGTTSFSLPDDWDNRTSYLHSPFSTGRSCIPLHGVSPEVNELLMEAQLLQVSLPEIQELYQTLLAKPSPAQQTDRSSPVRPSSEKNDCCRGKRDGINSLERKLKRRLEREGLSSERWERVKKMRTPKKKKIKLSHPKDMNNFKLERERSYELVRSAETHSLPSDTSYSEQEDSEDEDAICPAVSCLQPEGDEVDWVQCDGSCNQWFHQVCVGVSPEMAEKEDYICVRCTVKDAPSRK
Assay: Primary screen for KDM5B Histone Demethylases FDH-coupled qHTS; also: nearly all actives have a fitted effect of over 70% in size; as to activity change, negative = inhibition: 0% is about no effect
Conditions: FDH-coupled NADH fluorescence (FDH is formaldehyde dehydrogenase); activity change, negative = inhibition: at 57.7 µM (top of the series) unless noted
Procedure, shortened: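 KDM5BΔAP (200 nM final) in 50 mM HEPES pH 7.5, 0.01% Tween-20 was preincubated 10 min at RT with compound over a concentration range. Substrate mix (H3K4me3 12.5 µM, α-KG 25 µM, Fe²⁺, ascorbate, NAD⁺, FDH) was added, and NADH fluorescence change over 30 min gave dose-response curves.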
Potency is read from the fitted curve at half-maximal effect; tags tell the direction and shape of the fitted curve.

Compound | Potency | activity change, negative = inhibition
CCOc1ccccc1NC(=O)C1CCCN(S(C)(=O)=O)C1 (stereo unspecified) | inconclusive: 39.8 µM [inhibitor, single point] | 
O=C(Nc1ccccc1)Oc1ccc[nH]c1=O | inconclusive: 25.1 µM [inhibitor, partial curve, poor fit] | 
CCCCS(=O)(=O)CCSS(=O)(=O)O |  | inactive: 10.1%
CN=C1S/C(=C\c2ccc(SC)cc2)C(=O)N1C | inconclusive: 31.6 µM [inhibitor, partial curve, poor fit] | 
Cc1ccc(C(=O)N2CCCC3(C2)C(=NC2CCCC2)NC(=O)N3c2cccnc2)cc1 (stereo unspecified) |  | inactive: 11.9% [at 115 µM]
O=c1cc(CSc2ncn[nH]2)[nH]c2ccc(F)cc12 | inconclusive: 28.2 µM [inhibitor, partial curve, poor fit] | 
COc1cccc(C(=O)/C(=C/c2ccco2)c2nc3ccccc3o2)c1 | inconclusive: 35.5 µM [inhibitor, partial curve, poor fit] | 
O=C(c1cccnc1)N1CCC2(CCCCO2)CC1 | inconclusive: 17.8 µM [inhibitor, single point] | 
O=C(c1ccccc1F)N1CCCN(c2cc(-c3ccccc3)[nH]n2)CC1 | inconclusive: 25.1 µM [inhibitor, single point] | 
CCn1c(SCc2ccccc2C)nc(=O)c2c(C(=O)OC)cc(C3CC3)nc21 | inconclusive: 14.1 µM [inhibitor, partial curve, poor fit] | 
CC(=O)Nc1ccc(S(=O)(=O)N[C@H]2CO[C@H]3[C@@H]2OC[C@@H]3n2nnnc2-c2ccc3c(c2)OCO3)cc1 | inconclusive: 22.4 µM [inhibitor, single point] | 
Cc1ccc2c(c1)c1c(c(=O)n(-c3cccc(Cl)c3)c(=O)n1CC(=O)NCCC1=CCCCC1)n2C | inconclusive: 1.26 µM [inhibitor, full curve, poor fit] | 
CN(CC(=O)NCc1ccc(Cl)cc1)S(=O)(=O)c1ccc2[nH]c3c(c2c1)CCCC3 | inconclusive: 44.7 µM [inhibitor, single point] | 
Cc1noc(C)c1[S+](=O)([O-])N1CCC2(C1)C(=O)N(CCc1ccccc1)c1ccccc12 (stereo unspecified) | inactive | 
COc1ccc(NC(=O)CCS(=O)(=O)c2nc(-c3cccs3)cc(C(F)(F)F)n2)cc1 |  | inactive: 6.84%
CC(C)(C)OC(=O)N1CCC(N2CCN(Cc3ccccc3)C(=O)C2=O)CC1 |  | inactive: 13%
CC(=O)N1CCN(S(=O)(=O)c2cccc3cc(C)cnc23)CC1 |  | inactive: 6.87%
CCOC(=O)c1ccccc1NC(=O)NCc1c(-n2cccc2)sc2c1CCCC2 | inconclusive: 1.41 µM [inhibitor, partial curve, poor fit] | 
O=C(CCC[C@@H]1[C@H]2CCCN3CCC[C@@H](CN1C(=O)NC1CCCCC1)[C@@H]23)NCC1CC1 | inconclusive: 25.1 µM [inhibitor, partial curve, poor fit] | 
COc1cc(OC)cc(C(=O)N(C)Cc2cc(Br)ccc2OC)c1 |  | inactive: -6.81%
O=C(c1cccc2[nH]ccc12)N1C[C@@H](CO)[C@H](c2ccccn2)C1 | active: 17.8 µM | 

Compound | Potency | activity change, negative = inhibition
Cc1ccc(C)c(NC(=O)CSc2nnc3[nH]c(=O)cc(-c4ccccc4)n23)c1 | inconclusive: 15.8 µM [inhibitor, partial curve, poor fit] | 
COc1ccccc1C(=O)Nc1cccc(C(=O)OCc2cc(=O)n3c4c(sc3n2)CCCC4)c1 | inconclusive: 15.8 µM [inhibitor, partial curve, poor fit] | 
COc1ccc(NC(=O)c2cc3n(n2)CC(c2ccc(Cl)cc2)OC3)cc1Cl (stereo unspecified) | active: 25.1 µM | 
O=C(Cc1c[nH]c2ncc(-c3ccncc3)cc12)N1CCOCC1 |  | inactive: 0.781% [at 86.2 µM]
O=C(c1cccc2nccnc12)N1CCC2(CC1)CC(N1CCCC1)CCO2 (stereo unspecified) | inconclusive: 25.1 µM [inhibitor, single point] | 
CC(NC(=O)c1ccc(OC2CCN(S(=O)(=O)N(C)C)CC2)cc1)c1cccs1 (stereo unspecified) |  | inactive: -3.43%
CCOc1cccc(C(=O)Nc2nc(-c3ccc(S(=O)(=O)N4CCOCC4)cc3)cs2)c1 | inconclusive: 15.8 µM [inhibitor, partial curve, poor fit] | 
COc1ccc(CN2CCn3c(nnc3C3CCCNC3)C2)cc1 (stereo unspecified) | inconclusive: 31.6 µM [inhibitor, single point] | 
c1csc(-c2nc3ccncc3[nH]2)c1 | active: 126 µM and active: 31.6 µM | 
COc1cccc(N2CCN(C(=O)CCSCc3ccccc3F)CC2)c1 |  | inactive: -0.839%
CCn1ccc2c(OCC(=O)Nc3ccc(C)c(Cl)c3)cccc2c1=O | inconclusive: 39.8 µM [inhibitor, single point] | 
O=C1C(=O)N(CCCN2CCOCC2)C(c2ccc([N+](=O)[O-])cc2)/C1=C(/O)c1ccc2c(c1)OCO2 (stereo unspecified) | inconclusive: 28.2 µM [inhibitor, partial curve, poor fit] | 
O=C(NCc1ccncc1)c1cc(-c2ccco2)nc2ccccc12 | inconclusive: 22.4 µM [inhibitor, partial curve, poor fit] | 
CCN(CC)c1cc(C)c2cc(NC(=O)c3cc(OC)cc(OC)c3)ccc2n1 | inconclusive: 25.1 µM [inhibitor, partial curve, poor fit] | 
Cc1cccc(C(=O)Nc2c(C(=O)N3CCN(c4ccc(F)cc4)CC3)oc3ccccc23)c1 | inconclusive: 28.2 µM [inhibitor, partial curve, poor fit] | 
Cc1ccc(S(=O)(=O)N(CC(=O)N2CCc3ccccc3C2)Cc2cccc(C)c2)cc1 |  | inactive: -12.7%
COCc1cc(C)nc2sc3c(c12)NC(c1ccccc1C(=O)O)N(c1cccc(C(F)(F)F)c1)C3=O (stereo unspecified) | inconclusive: 2.51 µM [inhibitor, full curve, poor fit] | 
COc1ccc(CN2Cc3cc(NC(=O)c4cc(OC)cc(OC)c4)ccc3OC(C)C2=O)cc1 (stereo unspecified) | inconclusive: 25.1 µM [inhibitor, single point] | 
O=C(NCc1ccc(C(F)(F)F)cc1)C1CN(c2ccc(Cl)cc2)C(=O)N1 (stereo unspecified) |  | inactive: 18.6%
CCc1cc(=O)oc2cc(C)cc(OCC(=O)NCCCN(C)C)c12 | inconclusive: 25.1 µM [inhibitor, partial curve, poor fit] | 
